From PubChem BioAssay (NCATS)
The inconclusive results got no clear call from the source; some entries with a clear call stand among them for comparison. For some of these results: Potencies of inconclusive entries are doubtful fits and often do not repeat. Activity calls are given as the source filed them. The call rests on the fitted dose curve; in most records, active means well fitted curve in the direction sought with a large enough effect; inconclusive means small, poorly fitted or top-dose-only effect, or another doubt; inactive means no such curve, though single readings can be large; an effect the other way counts as inactive or inconclusive.

Tests used:
[1] = NS1 protein of Zika virus - qHTS assay to identify small molecule inhibitors in human HEK 293 cells (AID 1347053); further: potency means the concentration at half of the fitted maximal effect; nearly all actives have a fitted effect of over 55% in size
Procedure, shortened: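 In this cell-based screen, HEK 293 cultures received compound for one hour before Zika MR766 at MOI = 0.5. NS1 was quantified 24 hours later by TR-FRET, normalized to virus-free wells and infected wells.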

[2] = qHTS of pediatric cancer cell lines to identify multiple opportunities for drug repurposing: Primary screen for TC32 cells (AID 1347089); further: potency means the concentration at half of the fitted maximal effect; nearly all actives have a fitted effect of over 60% in size
Procedure, shortened: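 qHTS, TC32, 48 h drug treatment, CellTiter-Glo luminescence as a proxy for metabolically active cells; primary top concentration 46 µM (MIPE 11-pt, NPC 8-pt); confirmatory 11-pt.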

[3] = qHTS of pediatric cancer cell lines to identify multiple opportunities for drug repurposing: Primary screen for U-2 OS cells (AID 1347096); further: potency means the concentration at half of the fitted maximal effect; nearly all actives have a fitted effect of over 50% in size
Procedure, shortened: (§1)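 Cells (500-1,000/well) rested 5 h, then received compounds for 48 h; metabolically active cells were measured by CellTiter-Glo luminescence. Final concentrations spanned up to 46 µM (MIPE, 11-point) or 0.59 nM-46 µM (NPC, 8-point) in primary screens, 11-point in follow-ups.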

[4] = qHTS of pediatric cancer cell lines to identify multiple opportunities for drug repurposing: Primary screen for SK-N-SH cells (AID 1347098); further: potency means the concentration at half of the fitted maximal effect; nearly all actives have a fitted effect of over 65% in size
Procedure, shortened: as §1

[5] = Quantitative High-Throughput drug screen in 47 multiple myeloma cell lines against the NCATS MIPE library collection: ARD_JJKsccE7 cell viability assay (AID 1918929; further: potency means the concentration at half of the fitted maximal effect;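 on viability: 100% = DMSO-only wells and 0% = media-only wells without cells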); conditions: ARD myeloma cell line viability, CellTiter-Glo, 48 h; viability: at 45.8 µM (top of the series)
Procedure, shortened: (§2)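 qHTS of the MIPE 4.0 collection: 500 myeloma cells/well, 48 h drug exposure at 37C in 5% CO2, then CellTiter-Glo for 5 min at room temperature before luminescence reading.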

[6] = Quantitative High-Throughput drug screen in 47 multiple myeloma cell lines against the NCATS MIPE library collection: KHM11_PLB cell viability assay (AID 1918962); conditions: KHM11 myeloma cell viability, CellTiter-Glo ATP luminescence, 48 h; viability, % of DMSO control: at 45.8 µM (top of the series); further: potency means the concentration at half of the fitted maximal effect; nearly all actives have a fitted effect of over 35% in size
Procedure, shortened: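 Approved and investigational drugs from MIPE 4.0 were added by pin tool to 500 cells per well. After 48 hours at 37C, ATP-based CellTiter-Glo luminescence indicated remaining viability.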

[7] = Quantitative High-Throughput drug screen in 47 multiple myeloma cell lines against the NCATS MIPE library collection: KMS27_JCRB cell viability assay (AID 1918970); conditions: KMS27 myeloma cells, CellTiter-Glo ATP viability, 48 h; viability (% of DMSO): at 45.8 µM (top of the series); further: potency means the concentration at half of the fitted maximal effect; nearly all actives have a fitted effect of over 30% in size
Procedure, shortened: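 ATP-based viability (CellTiter-Glo luminescence) is measured in cells treated 48 h with approved and investigational drugs at 37 °C. Controls are DMSO-only wells for full viability and media-only wells for none.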

[8] = Quantitative High-Throughput drug screen in 47 multiple myeloma cell lines against the NCATS MIPE library collection: KMS12PE_JCRB cell viability assay (AID 1918972); further: potency means the concentration at half of the fitted maximal effect; nearly all actives have a fitted effect of over 30% in size
Procedure, shortened: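 Inhibition of cell viability is measured here. Each line was plated at 500 cells per well, treated with MIPE 4.0 drugs, kept 48 hours at 37C, then assayed for ATP content by CellTiter-Glo luminescence.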

[9] = Quantitative High-Throughput drug screen in 47 multiple myeloma cell lines against the NCATS MIPE library collection: KMS20_JCRB cell viability assay (AID 1918973); conditions: CellTiter-Glo ATP, 48 h; viability (% of DMSO): at 45.8 µM (top of the series); further: nearly all actives have a fitted effect of over 45% in size; further: potency means the concentration at half of the fitted maximal effect;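 on viability (% of DMSO): 100% = DMSO only wells and 0% = media only wells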
Procedure, shortened: as §2

[10] = Quantitative High-Throughput drug screen in 47 multiple myeloma cell lines against the NCATS MIPE library collection: MOLP8_DSMZ cell viability assay (AID 1918977); further: potency means the concentration at half of the fitted maximal effect; nearly all actives have a fitted effect of over 45% in size
Procedure, shortened: (§3)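 ATP-based luminescence (CellTiter-Glo, 5 min RT incubation) quantified surviving cells following two days' treatment with MIPE 4.0 agents at 37 °C, 5% CO2.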

[11] = Quantitative High-Throughput drug screen in 47 multiple myeloma cell lines against the NCATS MIPE library collection: OCIMY1_PLB cell viability assay (AID 1918979); further: potency means the concentration at half of the fitted maximal effect; nearly all actives have a fitted effect of over 35% in size
Procedure, shortened: as §3

MCC-26 = assay: qHTS assay to identify novel small-molecules to repurpose for Merkel cell carcinoma treatment (AID 1296009); conditions: MCC and control cell lines, CellTiter-Glo viability, 72 h; activity change, negative = cytotoxicity: at 46 µM (top of the series); further: potency means the concentration at half of the fitted maximal effect; nearly all actives have a fitted effect of over 60% in size
Procedure, shortened: (§4)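 Cell viability measured by CellTiter-Glo following 72 hr compound treatment at 37 degree celsius, with NPC and MIPE libraries tested in 8- and 11-point concentration series.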

[12] = qHTS of pediatric cancer cell lines to identify multiple opportunities for drug repurposing: Primary screen for NB-EBc1 cells (AID 1347095); further: potency means the concentration at half of the fitted maximal effect
Procedure, shortened: (§5)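 Plated cells (500-1,000 per well, growth media) were allowed to settle for 5 hours, treated with compound dilutions for 48 hours, then lysed with CellTiter-Glo for 15 min at room temperature before luminescence reading.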

[13] = qHTS of pediatric cancer cell lines to identify multiple opportunities for drug repurposing: Primary screen for Rh30 cells (AID 1347107); further: potency means the concentration at half of the fitted maximal effect; nearly all actives have a fitted effect of over 75% in size
Procedure, shortened: as §1

MKL-1 = assay: qHTS assay to identify novel small-molecules to repurpose for Merkel cell carcinoma treatment (AID 1296009); conditions: MCC and control cell lines, CellTiter-Glo viability, 72 h; activity change, negative = cytotoxicity: at 46 µM (top of the series); further: potency means the concentration at half of the fitted maximal effect; nearly all actives have a fitted effect of over 60% in size
Procedure, shortened: as §4

[14] = qHTS of pediatric cancer cell lines to identify multiple opportunities for drug repurposing: Primary screen for MG 63 (6-TG R) cells (AID 1347105); conditions: MG 63 (6-TG R) viability, CellTiter-Glo, 48 h; activity change, negative = cytotoxic: at 46 µM (top of the series); further: potency means the concentration at half of the fitted maximal effect; nearly all actives have a fitted effect of over 50% in size
Procedure, shortened: as §5

[15] = Quantitative High-Throughput drug screen in 47 multiple myeloma cell lines against the NCATS MIPE library collection: UTMC2_PLB cell viability assay (AID 1919868); conditions: CellTiter-Glo ATP luminescence, 48 h; viability (% of DMSO control): at 45.8 µM (top of the series); further: potency means the concentration at half of the fitted maximal effect; nearly all actives have a fitted effect of over 55% in size
Procedure, shortened: as §3

[16] = target: Phospholipid hydroperoxide glutathione peroxidase GPX4 (Homo sapiens) (UniProt P36969); assay: Primary qHTS Assay for Inhibitors of Recombinant Selenoprotein Glutathione Peroxidase 4 (GPX4) (AID 1845192); further: on the % scale 0 is the no-effect control and ±100 the full control effect; nearly all actives have a fitted effect of over 65% in size
Procedure, shortened: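 NADPH consumption followed by fluorescence at 340/450 nm, t=0 and after 15 min at room temperature. Reaction started with cumene hydroperoxide (0.5 mM final) after 30 min compound–GPX4 preincubation; final 200 nM GPX4, 100 nM GR, 1 mM GSH, 0.5 mM NADPH.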

[17] = Quantitative High-Throughput drug screen in 47 multiple myeloma cell lines against the NCATS MIPE library collection: EJM_DSMZ cell viability assay (AID 1918926; further: potency means the concentration at half of the fitted maximal effect; nearly all actives have a fitted effect of over 30% in size)
Procedure, shortened: as §2

[18] = Quantitative High-Throughput drug screen in 47 multiple myeloma cell lines against the NCATS MIPE library collection: OCIMY5_PLB cell viability assay (AID 1918988); further: potency means the concentration at half of the fitted maximal effect; nearly all actives have a fitted effect of over 65% in size
Procedure, shortened: as §3
Tags describe the fitted curve by direction and shape.

Chain of UniProt P36969 (P36969 whole entry, looked up): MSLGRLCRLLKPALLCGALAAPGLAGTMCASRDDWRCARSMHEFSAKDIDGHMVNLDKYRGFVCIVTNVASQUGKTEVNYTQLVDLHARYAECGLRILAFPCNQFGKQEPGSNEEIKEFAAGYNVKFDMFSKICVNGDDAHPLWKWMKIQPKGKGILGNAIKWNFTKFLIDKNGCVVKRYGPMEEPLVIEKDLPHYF

CS(=O)(=O)N1CCc2c(-c3cnc(N)nc3)nc(N3CCOCC3)nc21
inconclusive: Potency [1] 3.72 µM [inhibitor, single point] | Potency [2] 0.37 µM [cytotoxic, full curve] | Potency [3] 0.935 µM [cytotoxic, full curve] | Potency [4] 3.04 µM [cytotoxic, partial curve] | viability [5] 36% [cytotoxic] | Potency [6] 0.235 µM [cytotoxic, full curve] | Potency [8] 0.418 µM [cytotoxic, full curve] | Potency [9] 0.526 µM [cytotoxic, full curve, poor fit] | Potency [10] 0.296 µM [cytotoxic, full curve] | Potency [11] 0.469 µM [cytotoxic, partial curve] | Potency (MCC-26) 1.32 µM [inhibitor, full curve]
active: Potency [7] 0.0235 µM

Cc1cc(Nc2ncc3c(n2)N(C)C(=O)N(c2cc(NC(=O)c4cccc(C(F)(F)F)c4)ccc2C)C3)n(C)n1
active: Potency [12] 0.743 µM | Potency [3] 0.935 µM | Potency [4] 0.607 µM | Potency [8] 1.05 µM | Potency [10] 0.296 µM | Potency (MCC-26) 1.18 µM
inconclusive: Potency [13] 0.59 µM [cytotoxic, full curve] | viability (% of DMSO) [9] 6.7% [cytotoxic] | Potency [11] 0.59 µM [cytotoxic, full curve] | Potency (MKL-1) 14.8 µM [inhibitor, partial curve]

CNC(=O)c1c(F)cccc1Nc1nc(Nc2cc3c(cc2OC)CCN3C(=O)CN(C)C)nc2[nH]ccc12
active: Potency [2] 5.87 µM | Potency [12] 0.332 µM | Potency [14] 18.7 µM | Potency [13] 2.96 µM | Potency [6] 9.35 µM | Potency [9] 0.118 µM | Potency [15] 0.0935 µM | Potency (MCC-26) 23.5 µM
inconclusive: Potency [5] 0.0332 µM [cytotoxic, full curve, poor fit] | Potency [8] 1.87 µM [rising, full curve, poor fit]

CC1(C)CC[C@]2(C(=O)OC3OC(CO)C(O)C(O)C3O)CC[C@]3(C)C(=CCC4[C@@]5(C)CC[C@H](OC6OC(C(=O)O)C(O)C(O)C6O)C(CO)(CO)C5CC[C@]43C)[C@@H]2C1 (some centres not stated)
inactive: Potency [16]

CCOc1cc2c(c(F)c1OCC)C(=N)N(CC(=O)c1cc(N3CCOCC3)c(OC)c(C(C)(C)C)c1)C2
active: Potency [17] 20.9 µM | Potency [18] 16.6 µM
inconclusive: Potency [12] 37.2 µM [cytotoxic, single point] | Potency [3] 29.6 µM [cytotoxic, single point] | Potency [5] 16.6 µM [rising, partial curve, poor fit] | Potency [6] 16.6 µM [cytotoxic, partial curve, poor fit] | Potency [7] 0.0019 µM [rising, full curve, poor fit] | Potency [8] 0.0074 µM [rising, full curve, poor fit] | Potency [10] 18.7 µM [cytotoxic, partial curve, poor fit]

O=C(Nc1nc2cccc(-c3ccc(CN4CCS(=O)(=O)CC4)cc3)n2n1)C1CC1
inconclusive: Potency [2] 26.2 µM [cytotoxic, single point] | Potency [4] 15.2 µM [cytotoxic, partial curve] | Potency [5] 11.8 µM [cytotoxic, single point] | Potency [7] 4.18 µM [cytotoxic, partial curve, poor fit] | Potency [8] 11.8 µM [cytotoxic, single point] | Potency [15] 4.18 µM [cytotoxic, partial curve, poor fit] | Potency (MCC-26) 29.6 µM [inhibitor, single point]
active: Potency [12] 10.5 µM | Potency [6] 13.2 µM | Potency [9] 18.7 µM | Potency [10] 14.8 µM | Potency [11] 23.5 µM | Potency [18] 6.62 µM

COc1cc2c(cc1O)CCC1C2CC[C@@]2(C)C1CC[C@@H]2O (some centres not stated)
active: Potency [12] 0.526 µM | Potency [11] 3.32 µM | Potency [18] 1.18 µM | Potency [15] 0.935 µM
inconclusive: Potency [1] 16.6 µM [inhibitor, single point] | Potency [17] 4.18 µM [cytotoxic, full curve] | Potency [6] 0.935 µM [cytotoxic, full curve] | Potency [7] 0.743 µM [cytotoxic, full curve, poor fit] | Potency [8] 1.05 µM [cytotoxic, partial curve, poor fit] | Potency [9] 0.833 µM [cytotoxic, full curve, poor fit] | Potency [10] 2.96 µM [cytotoxic, partial curve, poor fit] | Potency (MKL-1) 5.9 µM [inhibitor, full curve]
